Reference: a collection of fitness landscapes (doi:10.1016/j.celrep.2020.107928)
Over roughly 81,000 sequences, “one-hybrid fitness for binding NBS DNA” has its median near -0.1; the highest 2% begin near 0.36. The list shows a part of the results.

B1: Caulobacter ParB omega fusion; a variant is named by its letters at X, in order, B8GW30 (parent)
chain: MESVVVGEPGMSEGRRGLGRGLSALLGEVDAAPAQAPGEQLGGSREAPIEILQRNPDQPRRTFREEDLEDLSNSIREKGVLQPILVRPSPDTAGEYQIVAGERAWRAAQRAGLKTVPIMVRELDDLAVLEIGIIENVQRADLNVLEEALSYKVLMEKFERTQENIAQTIGKSXSHVANXMRLLXLPDEVQSYLVSGELTAXHARAIAAAADPVALAKQIIEGGLSVRETEALARKAPNLSAGKSKGGRPPRVKDTDTQALESDLSSVLGLDVSIDHRGSTGTLTITYATLEQLDDLCNRLTRGI

Variants of: B1
Experiment: one-hybrid fitness for binding NBS DNA (the Noc-binding site; scaled: cognate 1, non-cognate 0); higher = stronger binding
Conditions: with NBS DNA site
Summary of the method: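 Fitness here means the log change in variant-to-wild-type read ratio between plasmids sequenced before and after selection. That scale was set so cognate equals 1 and non-cognate equals 0. The selection was a bacterial one-hybrid screen of Caulobacter ParB libraries, four specificity codons randomised, in E. coli USO carrying a HIS3 reporter with the site 19 bp from the promoter, grown 48 hours at 37°C on M9-minus-histidine with 0.1 mM IPTG and 5 mM 3-AT.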

Question: For LYMT, which “one-hybrid fitness for binding NBS DNA” value is on record?
Answer: ≤ 0.2

Question: For YNAS, which “one-hybrid fitness for binding NBS DNA” value is on record?
Answer: ≤ 0.2

Question: For YTCR, which “one-hybrid fitness for binding NBS DNA” value is on record?
Answer: ≤ 0.2

Question: How did the “one-hybrid fitness for binding NBS DNA” value turn out when DCPY was run?
Answer: ≤ 0.2

Question: How did the “one-hybrid fitness for binding NBS DNA” value turn out when QRWS was run?
Answer: 0.54

Question: Which “one-hybrid fitness for binding NBS DNA” value does the source give for YHKY here?
Answer: ≤ 0.2

Question: VSVL was tested. Which “one-hybrid fitness for binding NBS DNA” value did it give?
Answer: ≤ 0.2

Question: For PVPR, which “one-hybrid fitness for binding NBS DNA” value is on record?
Answer: ≤ 0.2

Question: For GYFS, which “one-hybrid fitness for binding NBS DNA” value is on record?
Answer: ≤ 0.2

Question: Which “one-hybrid fitness for binding NBS DNA” value does the source give for CLEF here?
Answer: ≤ 0.2

Question: QVQN was tested. Which “one-hybrid fitness for binding NBS DNA” value did it give?
Answer: ≤ 0.2

Question: Which “one-hybrid fitness for binding NBS DNA” value does the source give for RRGT here?
Answer: 0.732

Question: For DQYD, which “one-hybrid fitness for binding NBS DNA” value is on record?
Answer: ≤ 0.2

Question: Which “one-hybrid fitness for binding NBS DNA” value does the source give for HVLS here?
Answer: ≤ 0.2

Question: How did the “one-hybrid fitness for binding NBS DNA” value turn out when DRIC was run?
Answer: ≤ 0.2

Question: For SIEF, which “one-hybrid fitness for binding NBS DNA” value is on record?
Answer: ≤ 0.2

Question: With KTNQ as the variant, how does the “one-hybrid fitness for binding NBS DNA” value read?
Answer: ≤ 0.2

Question: For NIQM, which “one-hybrid fitness for binding NBS DNA” value is on record?
Answer: ≤ 0.2

Question: For RNKL, which “one-hybrid fitness for binding NBS DNA” value is on record?
Answer: ≤ 0.2

Question: Which “one-hybrid fitness for binding NBS DNA” value does the source give for RDYS here?
Answer: ≤ 0.2

Question: RTWH was tested. Which “one-hybrid fitness for binding NBS DNA” value did it give?
Answer: ≤ 0.2

Question: How did the “one-hybrid fitness for binding NBS DNA” value turn out when AKYS was run?
Answer: ≤ 0.2

Question: For TIYV, which “one-hybrid fitness for binding NBS DNA” value is on record?
Answer: ≤ 0.2

Question: PRGP was tested. Which “one-hybrid fitness for binding NBS DNA” value did it give?
Answer: ≤ 0.2

Question: PLNY was tested. Which “one-hybrid fitness for binding NBS DNA” value did it give?
Answer: ≤ 0.2

Question: Which “one-hybrid fitness for binding NBS DNA” value does the source give for QNPN here?
Answer: ≤ 0.2

Question: With TDSW as the variant, how does the “one-hybrid fitness for binding NBS DNA” value read?
Answer: ≤ 0.2

Question: How did the “one-hybrid fitness for binding NBS DNA” value turn out when LGET was run?
Answer: ≤ 0.2

Question: GISA was tested. Which “one-hybrid fitness for binding NBS DNA” value did it give?
Answer: ≤ 0.2

Question: VRRK was tested. Which “one-hybrid fitness for binding NBS DNA” value did it give?
Answer: ≤ 0.2

Question: How did the “one-hybrid fitness for binding NBS DNA” value turn out when HKRV was run?
Answer: ≤ 0.2

Question: Which “one-hybrid fitness for binding NBS DNA” value does the source give for DGRF here?
Answer: ≤ 0.2

Question: VYQR was tested. Which “one-hybrid fitness for binding NBS DNA” value did it give?
Answer: ≤ 0.2

Question: How did the “one-hybrid fitness for binding NBS DNA” value turn out when YVML was run?
Answer: ≤ 0.2

Question: Which “one-hybrid fitness for binding NBS DNA” value does the source give for TNKH here?
Answer: ≤ 0.2

Question: How did the “one-hybrid fitness for binding NBS DNA” value turn out when QCFT was run?
Answer: 0.424

Question: For NMQS, which “one-hybrid fitness for binding NBS DNA” value is on record?
Answer: ≤ 0.2

Question: How did the “one-hybrid fitness for binding NBS DNA” value turn out when KRSD was run?
Answer: ≤ 0.2

Question: Which “one-hybrid fitness for binding NBS DNA” value does the source give for LPLW here?
Answer: ≤ 0.2

Question: Which “one-hybrid fitness for binding NBS DNA” value does the source give for HVTI here?
Answer: ≤ 0.2

Question: For ATMT, which “one-hybrid fitness for binding NBS DNA” value is on record?
Answer: ≤ 0.2

Question: For QWKF, which “one-hybrid fitness for binding NBS DNA” value is on record?
Answer: ≤ 0.2

Question: With PQRS as the variant, how does the “one-hybrid fitness for binding NBS DNA” value read?
Answer: ≤ 0.2

Question: For FDAE, which “one-hybrid fitness for binding NBS DNA” value is on record?
Answer: ≤ 0.2

Question: Which “one-hybrid fitness for binding NBS DNA” value does the source give for ACRC here?
Answer: ≤ 0.2

Question: How did the “one-hybrid fitness for binding NBS DNA” value turn out when SNEC was run?
Answer: ≤ 0.2

Question: ETKS was tested. Which “one-hybrid fitness for binding NBS DNA” value did it give?
Answer: ≤ 0.2

Question: WVMV was tested. Which “one-hybrid fitness for binding NBS DNA” value did it give?
Answer: ≤ 0.2

Question: With DMPT as the variant, how does the “one-hybrid fitness for binding NBS DNA” value read?
Answer: ≤ 0.2

Question: Which “one-hybrid fitness for binding NBS DNA” value does the source give for GCLT here?
Answer: ≤ 0.2

Question: For YTRC, which “one-hybrid fitness for binding NBS DNA” value is on record?
Answer: ≤ 0.2

Question: Which “one-hybrid fitness for binding NBS DNA” value does the source give for RQDL here?
Answer: ≤ 0.2

Question: How did the “one-hybrid fitness for binding NBS DNA” value turn out when QCDG was run?
Answer: ≤ 0.2

Question: RWYV was tested. Which “one-hybrid fitness for binding NBS DNA” value did it give?
Answer: ≤ 0.2

Question: With EPGL as the variant, how does the “one-hybrid fitness for binding NBS DNA” value read?
Answer: ≤ 0.2

Question: For YKLV, which “one-hybrid fitness for binding NBS DNA” value is on record?
Answer: ≤ 0.2

Question: With SLGY as the variant, how does the “one-hybrid fitness for binding NBS DNA” value read?
Answer: ≤ 0.2

Question: For DMGT, which “one-hybrid fitness for binding NBS DNA” value is on record?
Answer: ≤ 0.2

Question: WPAF was tested. Which “one-hybrid fitness for binding NBS DNA” value did it give?
Answer: ≤ 0.2

Question: Which “one-hybrid fitness for binding NBS DNA” value does the source give for FLQS here?
Answer: ≤ 0.2

Question: Which “one-hybrid fitness for binding NBS DNA” value does the source give for LARV here?
Answer: ≤ 0.2

Question: For QATH, which “one-hybrid fitness for binding NBS DNA” value is on record?
Answer: ≤ 0.2

Question: For PIYG, which “one-hybrid fitness for binding NBS DNA” value is on record?
Answer: ≤ 0.2

Question: With VSSW as the variant, how does the “one-hybrid fitness for binding NBS DNA” value read?
Answer: ≤ 0.2

Question: PNQG was tested. Which “one-hybrid fitness for binding NBS DNA” value did it give?
Answer: ≤ 0.2

Question: Which “one-hybrid fitness for binding NBS DNA” value does the source give for MISC here?
Answer: ≤ 0.2

Question: Which “one-hybrid fitness for binding NBS DNA” value does the source give for RRQK here?
Answer: 0.261

Question: With KPYR as the variant, how does the “one-hybrid fitness for binding NBS DNA” value read?
Answer: ≤ 0.2

Question: QSDY was tested. Which “one-hybrid fitness for binding NBS DNA” value did it give?
Answer: ≤ 0.2

Question: How did the “one-hybrid fitness for binding NBS DNA” value turn out when ACNS was run?
Answer: ≤ 0.2

Question: Which “one-hybrid fitness for binding NBS DNA” value does the source give for PFNA here?
Answer: ≤ 0.2

Question: SAKI was tested. Which “one-hybrid fitness for binding NBS DNA” value did it give?
Answer: ≤ 0.2

Question: For TVVG, which “one-hybrid fitness for binding NBS DNA” value is on record?
Answer: ≤ 0.2

Question: Which “one-hybrid fitness for binding NBS DNA” value does the source give for AGCP here?
Answer: ≤ 0.2

Question: For FQTR, which “one-hybrid fitness for binding NBS DNA” value is on record?
Answer: ≤ 0.2

Question: Which “one-hybrid fitness for binding NBS DNA” value does the source give for GMFG here?
Answer: ≤ 0.2

Question: Which “one-hybrid fitness for binding NBS DNA” value does the source give for SNEV here?
Answer: ≤ 0.2

Question: Which “one-hybrid fitness for binding NBS DNA” value does the source give for AKKT here?
Answer: ≤ 0.2

Question: For IFFR, which “one-hybrid fitness for binding NBS DNA” value is on record?
Answer: ≤ 0.2

Question: With FGLE as the variant, how does the “one-hybrid fitness for binding NBS DNA” value read?
Answer: ≤ 0.2

Question: NEQR was tested. Which “one-hybrid fitness for binding NBS DNA” value did it give?
Answer: ≤ 0.2

Question: With LNYC as the variant, how does the “one-hybrid fitness for binding NBS DNA” value read?
Answer: ≤ 0.2

Question: With LGIS as the variant, how does the “one-hybrid fitness for binding NBS DNA” value read?
Answer: ≤ 0.2

Question: IHNS was tested. Which “one-hybrid fitness for binding NBS DNA” value did it give?
Answer: ≤ 0.2
